Results from the supplement of paper PMC10600219.
Counter-ions that a name gives are not always drawn. In all, about 2,800 compounds were measured (“cell viability relative to vehicle”: median about 0.98, lowest 2% from about 0.45 on). This is one part of the list.

Test system: NCI-H2228 alectinib-DTP
Assay: cell viability relative to vehicle (fraction of vehicle); NCI-H2228 is an ALK-positive lung cancer line and DTP means drug-tolerant persister; higher = less growth inhibition
Settings: 100 nM; treatment time 6 days
Outline: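 NCI-H2228 parental cells and drug-tolerant persister cells were plated in 384-well plates; the persisters had been generated with 1000 nM of a targeted drug over 13 days. One day later, the 3114-agent TargetMol anti-cancer compound library was added at 100 nM, with DMSO serving as vehicle. ATP was measured 6 days after that using the CellTiter-Glo 3D Cell Viability Assay. Values are cell viability expressed relative to vehicle-treated cells.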

| SMILES | cell viability |
| --- | --- |
| CNC(=O)c1ccccc1Nc1nc(Nc2ccc3c(c2OC)CCC[C@H](N2CCN(CCO)CC2)C3)ncc1Cl | 0.86 |
| O=C(O)CCc1ccc(O)cc1O [Hydroumbellic acid] | 0.883 |
| O=C(O)c1ccc2c(c1)C(=O)c1ccccc1C2=O | 1.08 |
| Cc1cc(C2CCCCC2)n(O)c(=O)c1 [Ciclopirox] | 0.92 |
| CCc1cc2c(=O)c(-c3nc4ccccc4s3)coc2c(CN2CCCCC2)c1O | 1.01 |
| O=C(COc1ccc(Cl)cc1)NC1CCC(NC(=O)COc2ccc(Cl)cc2)CC1 (stereo not drawn) [ISRIB (trans-isomer)] | 0.899 |
| O=C(COc1ccc(Cl)cc1)NC1CCC(NC(=O)COc2ccc(Cl)cc2)CC1 (stereo not given) | 0.998 |
| COc1cc2ncnc(Oc3cccc(NC(=O)Nc4cc(C(C)(C)C(F)(F)F)on4)c3)c2cc1OC | 1.12 |
| O=c1c(O)c(-c2ccc(O)c(O)c2)oc2cc(O)ccc12 [Fisetin] | 0.98 |
| CNS(=O)(=O)Cc1ccc2[nH]cc(CCN(C)C)c2c1 [Sumatriptan succinate] | 1.08 |
| NS(=O)(=O)c1cc2c(cc1Cl)N=CNS2(=O)=O [Chlorothiazide] | 1.01 |
| COc1ccc(-c2cnc3c(-c4cccc5ncccc45)cnn3c2)cc1 | 1.09 |
| COc1ccc(-c2nc3cc(C4=NNC(=O)CC4C)ccc3[nH]2)cc1 (stereo not given) [Pimobendan] | 0.931 |
| NCC(=O)Nc1ccc(-n2nc(C(F)(F)F)cc2-c2ccc3c(ccc4ccccc43)c2)cc1 | 0.891 |
| CNC(=O)c1ccc(-c2cnc3ncc(Cc4ccc5ncccc5c4)n3n2)cc1F [Capmatinib] | 1.04 |
| CNC(=O)c1ccc(-c2cnc3ncc(Cc4ccc5ncccc5c4)n3n2)cc1F [Capmatinib 2HCl] | 1.03 |
| Cc1ccc(S(=O)(=O)n2c(N)nc3ccccc32)cc1 | 0.986 |
| CCOc1ccc2c(c1)C(C)=CC(C)(C)N2 [Ethoxyquin] | 1.06 |
| CCOC(=O)[C@H](CCc1ccccc1)N[C@@H](C)C(=O)N1[C@H](C(=O)O)C[C@@H]2CCC[C@@H]21 [Ramipril] | 0.894 |
| O=C(NCc1ccncc1)C12CC3CC(C1)CC(c1ccc(Cl)cc1)(C3)C2 | 1.07 |
| NC(=O)c1ncn([C@@H]2O[C@H](CO)[C@@H](O)[C@H]2O)n1 [Ribavirin] | 1.2 |
| CC(C)[C@H](CO)Nc1nc(Nc2cccc(Cl)c2)c2ncn(C(C)C)c2n1 [Purvalanol A] | 1.09 |
| Cc1[nH]c(=O)c(C#N)cc1-c1ccncc1 [Milrinone] | 1.08 |
| CCCNC(=O)[C@H]1O[C@@H]1C(=O)N[C@H](C(=O)N1CCC[C@H]1C(=O)OC)[C@@H](C)CC [CA-074 methyl ester] | 0.931 |
| CN(C)CCC=C1c2ccccc2CCc2ccccc21 [Amitriptyline hydrochloride] | 1.1 |
| C#C[C@]1(O)CC[C@H]2[C@@H]3CCc4cc(OC5CCCC5)ccc4[C@H]3CC[C@@]21C [Quinestrol] | 1.16 |
| CC(=O)c1cc([N+](=O)[O-])c(Sc2cccc(Cl)c2Cl)s1 | 1.03 |

| SMILES | cell viability |
| --- | --- |
| CS(=O)(=O)c1ccc(C2=C(c3ccccc3)C(=O)OC2)cc1 [Rofecoxib] | 1 |
| Cn1c(=O)c2[nH]cnc2n(C)c1=O [Aminophylline] | 1.07 |
| O=C(Nc1ccccc1)c1ccccc1O [Salicylanilide] | 0.984 |
| FC(F)(F)c1ccc(CNc2ccc(Cc3c[nH]c4ncc(Cl)cc34)cn2)cn1 [Pexidartinib] | 1.03 |
| OCCNC1CCCc2c1[nH]c1ccc(-c3ccccc3)cc21 (stereo not given) | 0.984 |
| Cn1cc(C(=O)Nc2ccc3c(c2)OCCO3)c2ccccc2c1=O | 1.12 |
| CCCOc1ccc2c(c1)CC[C@@H]1[C@@H]2CC[C@]2(C)[C@@H](OC)CC[C@@H]12 [Promestriene] | 0.952 |
| N#Cc1ccc2[nH]cc(CCCCN3CCN(c4ccc5oc(C(N)=O)cc5c4)CC3)c2c1 [Vilazodone HCl] | 1.06 |
| CN1C(C(=O)Nc2ccccn2)=C(O)c2sccc2S1(=O)=O [Tenoxicam] | 0.864 |
| COc1cc(/C=C/C(=O)N2CCC=CC2=O)cc(OC)c1OC [Piperlongumine] | 1.01 |
| Cc1cn([C@H]2C[C@H](F)[C@@H](CO)O2)c(=O)[nH]c1=O [3'-Deoxy-3'-fluorothymidine] | 0.837 |
| C=C[C@H]1CN2CC[C@H]1C[C@@H]2[C@@H](O)c1ccnc2ccc(OC)cc12 [Quinidine hydrochloride] | 0.969 |
| N=C(N)N [Guanidine hydrochloride] | 1.19 |
| CCCCCC/C=C\CCCCCCCc1cccc(O)c1C(=O)O [Ginkgolic acid C15:1] | 1.24 |
| CC1(COc2ccc3c(c2)ncn3-c2ccc3cccc(N4CCC(N)CC4)c3n2)COC1 [Crenolanib] | 0.91 |
| COc1ccccc1-c1cc(Nc2cccc(CS(N)(=O)=O)c2)ncn1 | 1.13 |
| COc1ccc2[nH]c(C(=O)N3CCC(CC(C)(C)O)CC3)cc2c1 | 1.05 |
| C[C@@H](Oc1cc(-n2cnc3ccc(CN4CCN(C)CC4)cc32)sc1C(N)=O)c1ccccc1C(F)(F)F | 0.692 |
| COc1ccc(S(=O)(=O)Nc2nc(-c3cccc([N+](=O)[O-])c3)cs2)cc1OC | 0.898 |
| CNCC[C@H](Oc1cccc2ccccc12)c1cccs1 [Duloxetine hydrochloride] | 1.1 |
| COc1cc2c(cc1OC)C(=O)C(CC1CCN(Cc3ccccc3)CC1)C2 (stereo not given) [Donepezil HCl] | 0.913 |
| CC(C)(C)c1ccc(CN2CCN(C(c3ccccc3)c3ccc(Cl)cc3)CC2)cc1 (stereo not given) [Buclizine HCl] | 0.98 |
| Cc1cc(N2CCCCC2)nc2ccccc12 | 1.12 |
| O=C1NCCSc2c1sc1ccc(O)cc21 | 1.06 |
| CCN(CC)CCOC(=O)C(c1ccccc1)C1CCCCC1 (stereo not given) [Drofenine hydrochloride] | 1.17 |
| C=C1C[C@@]23CC[C@H]4[C@@](C)(CCC[C@@]4(C)C(=O)O[C@@H]4O[C@H](CO)[C@@H](O)[C@H](O)[C@H]4O)[C@@H]2CC[C@]1(O[C@@H]1O[C@H](CO)[C@@H](O)[C@H](O)[C@H]1O[C@@H]1O[C@H](CO)[C@@H](O)[C@H](O)[C@H]1O)C3 [Stevioside] | 0.911 |
| CN(C(=O)c1ccc(F)cc1C(F)(F)F)C1CCN(c2nnc(-c3ccnn3C)c3ccccc23)CC1 [Taladegib] | 0.874 |

| SMILES | cell viability |
| --- | --- |
| COc1ccc(S(=O)(=O)NCc2ccc(C(=O)NCCc3ccc(Cl)cn3)cc2)cc1 | 1.14 |
| COc1cc2c(cc1OC)CN(CCc1ccc(NC(=O)c3cc(OC)c(OC)cc3NC(=O)c3cnc4ccccc4c3)cc1)CC2 [Tariquidar] | 0.919 |
| COc1cc(Cc2cnc(N)nc2N)cc(OC)c1OC [Trimethoprim] | 1.04 |
| CC(C)(Sc1cc(C(C)(C)C)c(O)c(C(C)(C)C)c1)Sc1cc(C(C)(C)C)c(O)c(C(C)(C)C)c1 [Probucol] | 0.972 |
| Cc1cccc(-c2[nH]ncc2-c2ccnc3ccccc23)n1 | 1.17 |
| COC(=O)c1sccc1S(=O)(=O)Nc1ccc(Nc2ccccc2)cc1OC | 0.835 |
| Nc1c(Br)cc(Br)cc1CN[C@H]1CC[C@H](O)CC1 [Ambroxol] | 0.894 |
| O=C(Nc1ccc(O)cc1)c1ccccc1O [Osalmid] | 1.18 |
| C=CC(=O)Nc1cccc(Nc2nc(Nc3ccc(N4CCN(C(C)=O)CC4)cc3OC)ncc2C(F)(F)F)c1 [Rociletinib] | 0.896 |
| CS(=O)(=O)CCNCc1ccc(-c2ccc3ncnc(Nc4ccc(OCc5cccc(F)c5)c(Cl)c4)c3c2)o1 [Lapatinib] | 0.781 |
| CS(=O)(=O)CCNCc1ccc(-c2ccc3ncnc(Nc4ccc(OCc5cccc(F)c5)c(Cl)c4)c3c2)o1 [Lapatinib Ditosylate] | 0.796 |
| C[C@@H]([C@H](C)O)[C@H](N)C(=O)O [(4S)-4-Hydroxy-L-isoleucine] | 0.961 |
| Cn1c(=O)cnn(CCCCN2CCN(c3ncccn3)CC2)c1=O [Eptapirone] | 0.95 |
| O=S(=O)(c1cccc2c(I)cccc12)N1CCCNCC1 [ML-7 hydrochloride] | 1.06 |
| COc1ccc(CCNCc2ccc(OCc3ccc(Cl)nc3)c(OC)c2)cc1OC [SBE 13 hydrochloride] | 0.978 |
| CC(C)(C)C(=O)OCOP(=O)(COCCn1cnc2c(N)ncnc21)OCOC(=O)C(C)(C)C [Adefovir dipivoxil] | 0.869 |
| OCC1=C[C@@H](O)[C@@H]2C=CO[C@@H](O[C@@H]3O[C@H](CO)[C@@H](O)[C@H](O)[C@H]3O)[C@H]12 [Aucubin] | 0.929 |
| O=c1ccc2ccc(O)c(O)c2o1 [Daphnetin] | 1 |
| O.O.O.O.O=C([O-])CC(O)(CC(=O)[O-])C(=O)[O-].[Li+].[Li+].[Li+] [Lithium citrate tribasic tetrahydrate] | 0.908 |
| CC1(C)CC(=O)C2=C(C1)NC(=S)NC2c1cccc(O)c1 (stereo not given) [Dimethylenastron] | 1.02 |
| CC(=O)NCCc1c[nH]c2ccc(O)cc12 [N-Acetyl-5-hydroxytryptamine] | 1.02 |
| COc1cc(OC)c(C(=O)CCCN2CCCC2)c(OC)c1 [Buflomedil hydrochloride] | 0.942 |
| CCCN(CCC)C(=O)C(CCC(=O)O)NC(=O)c1ccccc1 (stereo not given) [Proglumide] | 1.03 |
| C/C=C1\NC(=O)[C@H]2CSSCC/C=C/[C@H](CC(=O)N[C@H](C(C)C)C(=O)N2)OC(=O)[C@H](C(C)C)NC1=O [Romidepsin] | 0.116 |
| O=C(O)CC[C@H]1CC[C@@](c2cc(F)ccc2F)(S(=O)(=O)c2ccc(Cl)cc2)CC1 | 0.991 |
| CC[C@H](CC[C@@H](C)[C@H]1CC[C@H]2[C@@H]3CC=C4C[C@@H](O)CC[C@]4(C)[C@H]3CC[C@]12C)C(C)C [Beta-Sitosterol] | 0.958 |
